According to PMC5436228:
No constants are given. Whether binding was seen depends on the method and setting. Binding seen in cells or lysates may run through a third protein. Some entries that bind do so weakly or less than the wild type.

What was measured:
Assay in all cases: co-IP; HEK293TN cells double transfected; 250 μg lysate (NP-40 lysis buffer) incubated 30 min at room temperature with protein G-Dynabeads bound to rabbit anti-GFP; blots with anti-FLAG M2, anti-GFP (JL-8) or anti-RIM1/2
[1] = target: Munc13-1 WT fused C terminally with GFP (rat) (UniProt Q62768)
[2] = target: Munc13-1 (K32E) fused C terminally with GFP (rat) (UniProt Q62768)
[3] = target: Munc13-1 (E128K, E137K) fused C terminally with GFP (rat) (UniProt Q62768)
[4] = target: Munc13-1 (K32E, E128K, E137K) fused C terminally with GFP (rat) (UniProt Q62768)

“full-length RIM-1α fused C terminally to a red fluorescent protein (RFP) (from UniProt Q9JIR4 1-1615)” was tested, and the binding [1] was “binds”, the binding [2] was “binds” and the binding [3] was “binds”. For the same substance, the binding [4] was “binds”.
With “Munc13-1 with 3xFLAG fused to the C terminus (from UniProt Q62768 1-1735)” the binding [1] was “binds”, the binding [2] was “no binding” and the binding [3] was “binds”. For the same substance, the binding [4] was “no binding”.
